Reference: the supplement of paper PMC8728848
This is one part of the list.

What was measured:
Experiment in all cases: glycan array binding signal (z-score within array); higher = stronger binding
Conditions in all cases: glycan notation: IUPAC condensed, linker removed
[1] = target: Gal(b1-4)GlcNAc(b1-3)Gal(b1-4)[Fuc(a1-3)]GlcNAc(b1-3)Gal(b1-4)[Fuc(a1-3)]GlcNAc
Outline: (§1)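 The binding signal is a Z-score computed within each array and averaged over linkers. Arrays of the same protein sequence at different concentrations or buffers were also averaged together. Data originate from 3228 arrays in the Consortium for Functional Glycomics database, kept only where the protein sequence was available.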

[2] = target: Gal(b1-4)GlcNAc(b1-3)GalNAc
Outline: as §1

[3] = target: Gal(b1-4)GlcNAc(b1-3)[Fuc(a1-3)GlcNAc(b1-6)]Gal(b1-4)Glc
Outline: as §1

[4] = target: Gal(b1-4)GlcNAc(b1-3)[Gal(b1-4)GlcNAc(b1-6)]Gal(b1-4)GlcNAc
Outline: as §1

[5] = target: Gal(b1-4)GlcNAc(b1-3)[GlcNAc(b1-6)]Gal(b1-4)GlcNAc
Outline: as §1

[6] = target: Gal(b1-4)GlcNAc(b1-6)Gal(b1-4)GlcNAc
Outline: as §1

[7] = target: Gal(b1-4)GlcNAc(b1-6)GalNAc
Outline: as §1

[8] = target: Gal(b1-4)GlcNAc(b1-6)[Gal(b1-3)]GalNAc
Outline: as §1

[9] = target: Gal(b1-4)GlcNAc(b1-6)[Gal(b1-4)GlcNAc(b1-3)]GalNAc
Outline: as §1

Gal(b1-4)GlcNAc6P = target: Gal(b1-4)GlcNAc6P
Outline: as §1

Gal(b1-6)Gal = target: Gal(b1-6)Gal
Outline: as §1

Gal3S(b1-3)GalNAc = target: Gal3S(b1-3)GalNAc
Outline: as §1

Gal3S(b1-3)GlcNAc = target: Gal3S(b1-3)GlcNAc
Outline: as §1

[10] = target: Gal3S(b1-3)[Fuc(a1-4)]GlcNAc
Outline: as §1

Gal3S(b1-4)Glc = target: Gal3S(b1-4)Glc
Outline: as §1

Gal3S(b1-4)Glc6S = target: Gal3S(b1-4)Glc6S
Outline: as §1

Gal3S(b1-4)GlcNAc = target: Gal3S(b1-4)GlcNAc
Outline: as §1

[11] = target: Gal3S(b1-4)[Fuc(a1-3)]Glc6S
Outline: as §1

[12] = target: Gal3S(b1-4)[Fuc(a1-3)]GlcNAc
Outline: as §1

[13] = target: Gal3S(b1-4)[Fuc(a1-3)]GlcNAc6S
Outline: as §1

Gal3S4S(b1-4)GlcNAc = target: Gal3S4S(b1-4)GlcNAc
Outline: as §1

Gal3S6S(b1-4)GlcNAc = target: Gal3S6S(b1-4)GlcNAc
Outline: as §1

Gal3S6S(b1-4)GlcNAc6S = target: Gal3S6S(b1-4)GlcNAc6S
Outline: as §1

Gal4S(b1-4)GlcNAc = target: Gal4S(b1-4)GlcNAc
Outline: as §1

Gal4S6S(b1-4)GlcNAc = target: Gal4S6S(b1-4)GlcNAc
Outline: as §1

Gal6P(b1-4)GlcNAc = target: Gal6P(b1-4)GlcNAc
Outline: as §1

Gal6S(b1-3)GlcNAc = target: Gal6S(b1-3)GlcNAc
Outline: as §1

Gal6S(b1-3)GlcNAc6S = target: Gal6S(b1-3)GlcNAc6S
Outline: as §1

Gal6S(b1-4)Glc = target: Gal6S(b1-4)Glc
Outline: as §1

Gal6S(b1-4)Glc6S = target: Gal6S(b1-4)Glc6S
Outline: as §1

Gal6S(b1-4)GlcNAc = target: Gal6S(b1-4)GlcNAc
Outline: as §1

Gal6S(b1-4)GlcNAc6S = target: Gal6S(b1-4)GlcNAc6S
Outline: as §1

GalNAc(a1-3)Gal = target: GalNAc(a1-3)Gal
Outline: as §1

GalNAc(a1-3)GalNAc = target: GalNAc(a1-3)GalNAc
Outline: as §1

[14] = target: GalNAc(a1-3)GalNAc(b1-3)Gal(a1-4)Gal(b1-4)Glc
Outline: as §1

[15] = target: GalNAc(a1-3)GalNAc(b1-3)Gal(a1-4)Gal(b1-4)GlcNAc
Outline: as §1

GalNAc(b1-3)Gal = target: GalNAc(b1-3)Gal
Outline: as §1

B1: CaSRK1 (Capsicum annuum) (protein)
chain: MALCKIFPFAFILLSCSCYLISGQRFDYPTANLSTTWINSVSAPHSIDYTDGSRIRAILLRGTFGPRYACGFYCNGNCESYLFAIFIVQTNSASQITSPAIGFPQVVWSANRNNPVKINSTLQLTAEGDLVLRDADGTLAWSTNTAGKSVAGLSLTDEGNLALFDSKNATVWQSFDHPTDALVPGQKLVPGMKLTASVSRTNWTAGGLFALSAIDNGLVAFVESNPPQKYFEASVGGSNTSGGSNYVKYLNGSLTLFTHSADTTELILISITPASSAQYMKLESNGHLKVYEWTSRGWREVDDLLTGFRGECNYPTVCGRYGICTMGQCSCPTSSSSRTYFRPIDVRRPSLGCSEVTKLTCQNTKKHSPLEVEDVDYFAFKAGISDTDLNTCKRACLEKCSCKAAFFRSGLNSSRTRGDCYLPTEIFSIMNNEKDRTRYDSVAFIKVQV
Which “glycan array binding signal (z-score)” value [1] does the source give for B1 here?
The value was -0.335.

And the “glycan array binding signal (z-score)” value [2]?
Its value is -0.343.

What about the “glycan array binding signal (z-score)” value [3] of the same binder?
Its value is 0.216.

And the “glycan array binding signal (z-score)” value [4]?
Its value is -0.549.

What about the “glycan array binding signal (z-score)” value [5] of the same binder?
The value was -0.104.

What about the “glycan array binding signal (z-score)” value [6] of the same binder?
The value was 0.04.

What about the “glycan array binding signal (z-score)” value [7] of the same binder?
Its value is -0.368.

What about the “glycan array binding signal (z-score)” value [8] of the same binder?
Its value is -0.309.

And the “glycan array binding signal (z-score)” value [9]?
Its value is -0.405.

And the “glycan array binding signal (z-score)” value (Gal(b1-4)GlcNAc6P)?
The value was 0.124.

And the “glycan array binding signal (z-score)” value (Gal(b1-6)Gal)?
Its value is -0.315.

What about the “glycan array binding signal (z-score)” value (Gal3S(b1-3)GalNAc) of the same binder?
The value was 0.831.

What about the “glycan array binding signal (z-score)” value (Gal3S(b1-3)GlcNAc) of the same binder?
Its value is 0.257.

And the “glycan array binding signal (z-score)” value [10]?
Its value is -0.07.

What about the “glycan array binding signal (z-score)” value (Gal3S(b1-4)Glc) of the same binder?
Its value is 1.91.

What about the “glycan array binding signal (z-score)” value (Gal3S(b1-4)Glc6S) of the same binder?
The value was 1.94.

What about the “glycan array binding signal (z-score)” value (Gal3S(b1-4)GlcNAc) of the same binder?
The value was 0.461.

What about the “glycan array binding signal (z-score)” value [11] of the same binder?
Its value is -0.371.

And the “glycan array binding signal (z-score)” value [12]?
The value was -0.079.

And the “glycan array binding signal (z-score)” value [13]?
Its value is 1.97.

And the “glycan array binding signal (z-score)” value (Gal3S4S(b1-4)GlcNAc)?
The value was 0.168.

And the “glycan array binding signal (z-score)” value (Gal3S6S(b1-4)GlcNAc)?
The value was -0.063.

And the “glycan array binding signal (z-score)” value (Gal3S6S(b1-4)GlcNAc6S)?
Its value is 2.4.

And the “glycan array binding signal (z-score)” value (Gal4S(b1-4)GlcNAc)?
Its value is -0.406.

And the “glycan array binding signal (z-score)” value (Gal4S6S(b1-4)GlcNAc)?
Its value is 1.02.

What about the “glycan array binding signal (z-score)” value (Gal6P(b1-4)GlcNAc) of the same binder?
The value was -0.342.

And the “glycan array binding signal (z-score)” value (Gal6S(b1-3)GlcNAc)?
The value was -0.512.

And the “glycan array binding signal (z-score)” value (Gal6S(b1-3)GlcNAc6S)?
Its value is 0.99.

What about the “glycan array binding signal (z-score)” value (Gal6S(b1-4)Glc) of the same binder?
Its value is -0.026.

And the “glycan array binding signal (z-score)” value (Gal6S(b1-4)Glc6S)?
The value was 0.802.

What about the “glycan array binding signal (z-score)” value (Gal6S(b1-4)GlcNAc) of the same binder?
The value was -0.454.

What about the “glycan array binding signal (z-score)” value (Gal6S(b1-4)GlcNAc6S) of the same binder?
Its value is 0.37.

And the “glycan array binding signal (z-score)” value (GalNAc(a1-3)Gal)?
The value was -0.472.

And the “glycan array binding signal (z-score)” value (GalNAc(a1-3)GalNAc)?
The value was -0.501.

And the “glycan array binding signal (z-score)” value [14]?
Its value is -0.518.

What about the “glycan array binding signal (z-score)” value [15] of the same binder?
The value was -0.509.

What about the “glycan array binding signal (z-score)” value (GalNAc(b1-3)Gal) of the same binder?
Its value is 0.477.
